# In a collection of fitness landscapes (doi:10.1016/j.celrep.2020.107928):
# In all, about 81,000 sequences were measured (“one-hybrid fitness for binding parS DNA”: median about -0.17, highest 2% from about 0.51 on). Some of the results follow.
# B1: Caulobacter ParB omega fusion; a variant is named by its letters at X, in order, B8GW30 (parent)
# chain: MESVVVGEPGMSEGRRGLGRGLSALLGEVDAAPAQAPGEQLGGSREAPIEILQRNPDQPRRTFREEDLEDLSNSIREKGVLQPILVRPSPDTAGEYQIVAGERAWRAAQRAGLKTVPIMVRELDDLAVLEIGIIENVQRADLNVLEEALSYKVLMEKFERTQENIAQTIGKSXSHVANXMRLLXLPDEVQSYLVSGELTAXHARAIAAAADPVALAKQIIEGGLSVRETEALARKAPNLSAGKSKGGRPPRVKDTDTQALESDLSSVLGLDVSIDHRGSTGTLTITYATLEQLDDLCNRLTRGI
# Variants of: B1
# Test: one-hybrid fitness for binding parS DNA (scaled: cognate 1, non-cognate 0); higher = stronger binding
# Conditions: with parS DNA site
# Method in brief: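 In E. coli USO, a HIS3 reporter with its site placed 19 bp from the promoter was used to select Caulobacter ParB variants randomised at four specificity codons. Growth lasted 48 hours at 37°C on histidine-free M9 containing 0.1 mM IPTG and 5 mM 3-AT. Fitness was taken as the log change in variant-to-wild-type read ratio from Illumina sequencing of pre- and post-selection plasmids, rescaled between the non-cognate and cognate sites.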
row,Variant,one-hybrid fitness for binding parS DNA
1,LVCG,≤ 0.2
2,ATNW,≤ 0.2
3,NNNI,≤ 0.2
4,TVYY,≤ 0.2
5,KVFL,≤ 0.2
6,LLYN,≤ 0.2
7,WDHW,≤ 0.2
8,AQIS,≤ 0.2
9,LVKS,≤ 0.2
10,YKPG,≤ 0.2
11,SYIW,≤ 0.2
12,QQER,≤ 0.2
13,YRCG,≤ 0.2
14,APYG,≤ 0.2
15,SAAL,≤ 0.2
16,RIKY,0.747
17,AQCP,≤ 0.2
18,LPAN,≤ 0.2
19,TKWV,≤ 0.2
20,HRDV,≤ 0.2
21,RHRW,≤ 0.2
22,VSVI,≤ 0.2
23,CNRA,≤ 0.2
24,IRST,≤ 0.2
25,QFPV,≤ 0.2

row,Variant,one-hybrid fitness for binding parS DNA
1,WTSM,≤ 0.2
2,CFVC,≤ 0.2
3,HWRF,≤ 0.2
4,VSHI,≤ 0.2
5,PEFR,≤ 0.2
6,QWYV,≤ 0.2
7,APRR,≤ 0.2
8,TQTN,≤ 0.2
9,VRWS,≤ 0.2
10,WTFR,≤ 0.2
11,ERIR,≤ 0.2
12,AQTR,≤ 0.2
13,FSCC,≤ 0.2
14,KQTH,≤ 0.2
15,RYNT,0.819
16,VTGI,≤ 0.2
17,DCLC,≤ 0.2
18,DYPV,≤ 0.2
19,VRKK,≤ 0.2
20,MKPK,≤ 0.2
21,VYKT,≤ 0.2
22,RDMT,≤ 0.2
23,RSLK,≤ 0.2
24,GTKG,≤ 0.2
25,MAWR,≤ 0.2

row,Variant,one-hybrid fitness for binding parS DNA
1,RPFM,≤ 0.2
2,ILMW,≤ 0.2
3,YILT,≤ 0.2
4,DSSR,≤ 0.2
5,AYTD,≤ 0.2
6,RVRL,≤ 0.2
7,AQEW,≤ 0.2
8,NGNH,≤ 0.2
9,REHM,≤ 0.2
10,ASVG,≤ 0.2
11,PLLK,≤ 0.2
12,SRKF,≤ 0.2
13,DMSL,≤ 0.2
14,ANSI,≤ 0.2
15,PLMC,≤ 0.2
16,NPIY,≤ 0.2
17,SGKE,≤ 0.2
18,WSHS,≤ 0.2
19,TSTG,≤ 0.2
20,DSMC,≤ 0.2
21,RCFN,0.43
22,VYTS,≤ 0.2
23,SNTV,≤ 0.2
24,TNVY,0.235
25,MRTT,≤ 0.2

row,Variant,one-hybrid fitness for binding parS DNA
1,PRVE,≤ 0.2
2,AKVE,≤ 0.2
3,QRYS,≤ 0.2
4,SWKK,≤ 0.2
5,STCE,≤ 0.2
6,ASNR,≤ 0.2
7,DHFS,≤ 0.2
8,SAKW,≤ 0.2
9,QTTH,≤ 0.2
10,RVFN,0.399
11,WPGR,≤ 0.2
12,KNPM,≤ 0.2
13,HYVI,≤ 0.2
14,MRRC,≤ 0.2
15,QIKV,≤ 0.2
16,EFTA,≤ 0.2
17,MPMV,≤ 0.2
18,QEPH,≤ 0.2
19,SSLV,≤ 0.2
20,SGYG,≤ 0.2
21,ALAI,≤ 0.2
22,NTKA,≤ 0.2
23,VVCR,≤ 0.2
24,HDNS,≤ 0.2
25,PYMM,≤ 0.2

row,Variant,one-hybrid fitness for binding parS DNA
1,SNIC,≤ 0.2
2,PDQC,≤ 0.2
3,MLGS,≤ 0.2
4,GPAK,≤ 0.2
5,VPSR,≤ 0.2
6,GIPS,≤ 0.2
7,SSNE,≤ 0.2
8,PPFP,≤ 0.2
9,MKYC,≤ 0.2
10,TCEM,0.286
11,RPNV,≤ 0.2
12,TAKL,≤ 0.2
13,SDKF,≤ 0.2
14,YSNV,≤ 0.2
15,VADD,≤ 0.2
16,HMAR,≤ 0.2
17,NANC,≤ 0.2
18,CHIT,≤ 0.2
19,LIDS,≤ 0.2
20,RWGY,0.269
21,QMDM,≤ 0.2
22,RVNL,≤ 0.2
23,YDTF,≤ 0.2
24,YYYV,≤ 0.2
25,EHTC,≤ 0.2

row,Variant,one-hybrid fitness for binding parS DNA
1,SYFF,≤ 0.2
2,KHAG,≤ 0.2
3,QWMS,≤ 0.2
4,AINT,≤ 0.2
5,SSPE,≤ 0.2
6,LAWG,≤ 0.2
7,HEAE,≤ 0.2
8,ACVV,≤ 0.2
9,FFSG,≤ 0.2
10,YILQ,≤ 0.2
11,QLWL,≤ 0.2
12,RGPD,≤ 0.2
13,QLLM,≤ 0.2
14,VDTR,≤ 0.2
15,HEDV,≤ 0.2
16,QHGR,≤ 0.2
17,TAQY,≤ 0.2
18,HVYD,≤ 0.2
19,ARRK,≤ 0.2
20,HDWS,≤ 0.2
21,YWPR,≤ 0.2
22,NCES,≤ 0.2
23,HHLE,≤ 0.2
24,PRGS,≤ 0.2
25,LRMY,≤ 0.2

row,Variant,one-hybrid fitness for binding parS DNA
1,SVDW,≤ 0.2
2,QTGS,≤ 0.2
3,PPKH,≤ 0.2
4,PSQY,≤ 0.2
5,CNTH,≤ 0.2
6,LITH,≤ 0.2
7,WAPH,≤ 0.2
8,LIYP,≤ 0.2
9,KWSV,≤ 0.2
10,HTPF,≤ 0.2
11,HNIS,≤ 0.2
12,PIWY,≤ 0.2
13,IIPI,≤ 0.2
14,WVYG,≤ 0.2
15,SSDA,≤ 0.2
16,RCIY,0.448
17,MYMW,≤ 0.2
18,HFNA,≤ 0.2
19,DLIR,≤ 0.2
20,FLGA,≤ 0.2
21,SCSR,≤ 0.2
22,SRRR,≤ 0.2
23,KNQR,≤ 0.2
24,HQKI,≤ 0.2
25,NRTT,≤ 0.2

row,Variant,one-hybrid fitness for binding parS DNA
1,LSDC,≤ 0.2
2,NPIV,≤ 0.2
3,HAFR,≤ 0.2
4,VIMI,≤ 0.2
5,ARNL,≤ 0.2
6,KAFV,≤ 0.2
7,QHWY,≤ 0.2
8,MPQH,≤ 0.2
9,EDTG,≤ 0.2
10,TTEP,≤ 0.2
11,QVGT,≤ 0.2
12,RWHW,≤ 0.2
13,AHAR,≤ 0.2
14,NGHK,≤ 0.2
15,ARIG,≤ 0.2
16,APET,≤ 0.2
17,KRHR,≤ 0.2
18,WVMS,≤ 0.2
19,TTWI,≤ 0.2
20,FHFL,≤ 0.2
